Assay results taken from PubChem BioAssay AID686970 (National Center for Advancing Translational Sciences (NCATS), 2013).
The campaign covered roughly 360,000 compounds. About 6,000 (1.7%) were called active. The shares of active, inactive and inconclusive entries below differ from those in the screen. Calls follow the shape of the dose curve; as a rule, active = well fitted cell-killing curve with a large enough effect; inconclusive = small, poorly fitted or top-dose-only effect, or effect the other way; inactive = flat fitted curve, though single readings scatter. No potency is given beside an inconclusive call; the fits are too rough.

Assay: qHTS for induction of synthetic lethality in tumor cells producing 2HG: qHTS for the HT-1080-NT fibrosarcoma cell line;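 also: NT is the 2HG producing partner of a matched IDH1 knockdown line; nearly all actives have a fitted effect of over 55% in size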;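 as to activity, negative = less viability: 0% = DMSO-treated cells and -100% = media-only wells without cells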
Conditions: HT-1080-NT fibrosarcoma viability, CellTiter-Glo ATP luminescence, 48 h; activity, negative = less viability: at 46.1 µM (top of the series) unless noted
Outline: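 750 cells/well, RPMI + 5% FBS; 2 h settle, compound pin-transfer, 48 h at 37 degrees C. CellTiter-Glo 10 min RT, luminescence. Normalized to DMSO and media-only wells.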
Potency is read from the fitted curve at half-maximal effect; tags tell the direction and shape of the fitted curve.

Row | SMILES | activity, negative = less viability | Potency
1 | CS(=O)(=O)Nc1ccccc1C(=O)NCCSc1ccc(Cl)cc1 | inconclusive: -30.3% [cytotoxic] | 
2 | CSc1ccc2c(c1)N(CCC1CCCCN1C)c1ccccc1S2 (configuration not stated) |  | active: 18.4 µM
3 | COc1ccc(-n2nc(C#N)c(Cl)cc2=O)cc1 |  | active: 7.31 µM
4 | Cc1ccc(NC2=NC(c3ccc(F)cc3)n3c(nc(C)cc3=O)N2)c(C)c1 (configuration not stated) |  | inconclusive [rising, single point]
5 | CCOc1ccc(C(=S)N2CCN(C)CC2)cc1 | inactive: 10.5% | 
6 | CCOc1ccc(-n2c(-c3ccccc3)c[n+]3c2CCC3)cc1 |  | inconclusive [cytotoxic, partial curve]
7 | CN(CC(=O)Nc1ccc(Cl)cc1F)C1CCS(=O)(=O)C1 (configuration not stated) | inactive: -6.98% | 
8 | O=C(O)c1ccc(-c2ccccn2)s1 | inconclusive: 33.2% | 
9 | CS(=O)(=O)NCCCNc1ccc(Cl)cc1[N+](=O)[O-] | inactive: 3.16% | 
10 | COC(=O)C1OC(OC2CC[C@]3(C)C(CC[C@@]4(C)[C@@H]3CC=C3[C@@H]5CC(C)(C)CC[C@]5(C(=O)OC5OC(CO)C(O)C(O)C5O)CC[C@]34C)C2(C)C)C(O)C(O)C1O[C@H]1OCC(O)C(O)C1O (some centres not stated) |  | inconclusive [cytotoxic, partial curve, poor fit]
11 | Cc1noc(C)c1COc1cccc(C(=O)OCC(=O)N2CC(=O)Nc3ccccc32)c1 |  | inconclusive [cytotoxic, full curve]
12 | Oc1ccc(N=Nc2ccc(Br)cc2)c(O)c1 |  | inconclusive [cytotoxic, single point]
13 | Cc1[nH]c2ccccc2c1N=Nc1ccccc1F |  | inconclusive [cytotoxic, single point]
14 | CN(Cc1ccc(F)cc1)C(=O)CNC(=O)c1ccc2c(c1)OCO2 | inactive: -4.19% | 
15 | Cc1ccc(C(=O)N[C@H](C(=O)Nc2ccc(F)cc2)C(C)C)cc1 | inactive: 1.92% | 
16 | O=C(Cc1ccc2c(c1)OCCO2)N1CCN(S(=O)(=O)c2cccs2)CC1 | inactive: 3.57% | 
17 | CCC(C)(C)n1nnnc1CN(Cc1cccs1)Cc1cc2cc(OC)ccc2[nH]c1=O | inactive: 0% | 
18 | CCOc1ccc(NC(=O)C2CCCN(S(=O)(=O)c3ccc(-n4cnnn4)cc3)C2)cc1 (configuration not stated) |  | inconclusive [cytotoxic, partial curve]
19 | Cc1cc2nc(C(C)(C)C)c(Cc3cccc(F)c3)n2c(C)c1Br |  | inconclusive [cytotoxic, single point]
20 | Cc1ccccc1C(=O)Nc1ccc(Br)c(C)n1 | inactive: -1.51% | 
21 | Oc1oc(-c2ccccc2)nc1C=Nc1cccc2ccccc12 |  | inconclusive [cytotoxic, single point]
22 | CCCCCn1c(=O)[nH]c2cc(C(=O)NCCN(CC)CC)ccc2c1=O |  | inconclusive [cytotoxic, single point]
23 | O=C(c1ccco1)N1CCN(c2nc(C3CC3)nc3sc4c(c23)CCCC4)CC1 |  | inconclusive [cytotoxic, single point]
24 | CCOC(=O)N1CCN(C(=O)c2cccc(N3C(=O)NC4CC3(C)Oc3ccc(Cl)cc34)c2)CC1 (configuration not stated) |  | active: 7.31 µM

Row | SMILES | activity, negative = less viability | Potency
25 | CCCCNC(=O)C1(C)CCCCCN1Cc1cc2ccccc2o1 (configuration not stated) |  | inconclusive [cytotoxic, single point]
26 | CC(=O)Nc1ccc(/C=C/c2ccc3cccc([N+](=O)[O-])c3n2)cc1 |  | inconclusive [cytotoxic, single point]
27 | NS(=O)(=O)c1ccc(N=Nc2c(O)[nH]c3ccc(Br)cc23)cc1 | inconclusive: -77.9% | 
28 | O=C(Cc1cnc2ncnn2c1)N1CCc2c([nH]c3ccccc23)C1c1ccccn1 (configuration not stated) | inactive: -13.1% | 
29 | Cc1ccccc1OCC(=O)Nc1ccc2c(c1)OCO2 | inconclusive: 25.6% | 
30 | CN1CCN(c2ccc(NC(=O)c3ccc(-c4ccc(Br)cc4)o3)cc2)CC1 |  | active: 14.6 µM
31 | COc1cc2c(cc1OC)CN(C(=O)c1ccc(S(=O)(=O)N(C)c3ccccc3)cc1)CC2 |  | inconclusive [cytotoxic, single point]
32 | COc1ccccc1-n1c(SCC(=O)Nc2cc(C)on2)nc2c(c1=O)SCC2 |  | inconclusive [cytotoxic, single point]
33 | CC1CN(C(=O)c2cccc(NS(=O)(=O)c3ccc(Br)cc3)c2)CC(C)O1 (configuration not stated) | inactive: -3.46% | 
34 | CC(CCc1ccc(O)cc1)NCc1ccc(Br)cc1 (configuration not stated) | inconclusive: -36.5% [cytotoxic] | 
35 | COc1cc(-c2cc(NC=O)c3ncc(-c4ccccc4)n3c2)cc(OC)c1OC |  | inconclusive [cytotoxic, partial curve, poor fit]
36 | COc1cccc(CC2(CO)CCCN(Cc3ccc(-c4ccco4)cc3)C2)c1 (configuration not stated) |  | inconclusive [cytotoxic, single point]
37 | COc1cccc(CN2C(=O)C(C)N(C(=O)c3ccccc3)c3ccccc32)c1 (configuration not stated) | inconclusive: -4.27% [cytotoxic] | 
38 | COCCn1c(SCC(=O)Nc2ccc(F)cc2F)nc2c([nH]c3ccccc32)c1=O | inactive: -4.56% | 
39 | COc1ccc(C(=O)CSc2cc(C)nc3nc(C)nn23)cc1OC |  | active: 15.8 µM
40 | CN(NC(=O)c1ccccc1F)c1nc(C(F)(F)F)nc2ccccc12 |  | active: 0.291 µM
41 | CCOc1ccccc1C(=O)Nc1c[nH]c(=O)[nH]c1=O | inactive: 17.6% | 
42 | Cc1cccc(C)c1NC(=O)C1(C)CCC(=O)N1CCCn1ccnc1 (configuration not stated) |  | inconclusive [rising, partial curve, poor fit]
43 | Cc1ccc2[nH]c(=O)c(CN(Cc3ccccc3)C(=S)NCCCN(C)C)cc2c1 |  | active: 18.4 µM
44 | O=C(Nc1ccc(S(=O)(=O)N2CCCCCC2)cc1)c1ccc(Br)o1 | inactive: 0.611% | 
45 | COc1ccccc1Cc1c(-c2ccc(OC)c(OC)c2)nc2c(C)cc(Br)cn12 |  | inconclusive [cytotoxic, single point]
46 | O=C(Nc1cccc(Cl)c1)Nc1cccc(Cl)c1 |  | inconclusive [cytotoxic, single point]
47 | O=C(O)c1ccc(N2C(=O)CC(SC(=NCc3ccc4c(c3)OCO4)Nc3ccc(F)cc3)C2=O)cc1 (configuration not stated) |  | inconclusive [cytotoxic, partial curve]
